The target of assay [1] is GST-Rab5 (UniProt P20339). The experiment in a line: pull-down; GST-Rab5-GDP-loaded beads incubated with bovine brain or HeLa cell cytosol, washed, eluted; Western blot with anti-Rabankyrin-5 antibodies; only the target purified.
For assay [2], the target named is GST-Rab5 (UniProt P20339). The experiment in a line: pull-down; GST-Rab5-GTPγS-loaded beads incubated with bovine brain or HeLa cell cytosol, washed, eluted; Western blot with anti-Rabankyrin-5 antibodies; only the target purified. (In western blotting, separated proteins are transferred to a membrane and probed.)
Assay [3] deals with GST-Rab7, P51149. The experiment in a line: pull-down; GST-Rab fusion proteins on glutathione-sepharose beads preloaded with GDP, incubated with in vitro-translated 35S-methionine-labelled protein; SDS-PAGE and phosphoimager analysis; only the target purified. The settings on record: remark: other sources report otherwise.
In assay [4] the target is GST-Rab7, P51149. Nature of the assay: pull-down; GST-Rab fusion proteins on glutathione-sepharose beads preloaded with GTPγS, incubated with in vitro-translated 35S-methionine-labelled protein; SDS-PAGE and phosphoimager analysis; only the target purified. The settings on record: remark: other sources report otherwise.
The target in assay [5] is GST-Rab11 (UniProt P62491). The experiment in a line: pull-down; GST-Rab fusion proteins on glutathione-sepharose beads preloaded with GDP, incubated with in vitro-translated 35S-methionine-labelled protein; SDS-PAGE and phosphoimager analysis; only the target purified.
The target in assay [6] is GST-Rab5 (UniProt P20339). The description is as above.
Assay [7] addresses GST-Rab11 (UniProt P62491). Nature of the assay: pull-down; GST-Rab fusion proteins on glutathione-sepharose beads preloaded with GTPγS, incubated with in vitro-translated 35S-methionine-labelled protein; SDS-PAGE and phosphoimager analysis; only the target purified.
Assay [8] concerns the target GST-Rab5 (UniProt P20339). The description is as above.

By UniProt entry, the sequences of proteins in these tests, tags left out.
UniProt P20339: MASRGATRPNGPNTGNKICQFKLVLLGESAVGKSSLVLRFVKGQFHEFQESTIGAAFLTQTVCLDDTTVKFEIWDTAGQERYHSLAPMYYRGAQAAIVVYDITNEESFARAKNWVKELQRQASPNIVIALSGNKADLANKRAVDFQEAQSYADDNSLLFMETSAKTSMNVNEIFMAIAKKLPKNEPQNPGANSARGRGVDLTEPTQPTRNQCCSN
UniProt P62491: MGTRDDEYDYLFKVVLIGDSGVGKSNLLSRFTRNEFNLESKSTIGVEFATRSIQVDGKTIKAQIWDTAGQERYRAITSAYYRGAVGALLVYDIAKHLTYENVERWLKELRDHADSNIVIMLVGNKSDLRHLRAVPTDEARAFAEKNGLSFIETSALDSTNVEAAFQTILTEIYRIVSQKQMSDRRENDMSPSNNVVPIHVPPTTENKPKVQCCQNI

Results are given in words; binding and its absence hold for the method and conditions named. Binding seen in cells or lysates may run through a third protein. Some entries that bind do so weakly or less than the wild type.

For three molecules, binding results are on record in article PMC514490.

B1: Rabankyrin-5 of HeLa cell cytosol (protein, UniProt Q9P2R3 1-1169)
chain: MAEEEVAKLEKHLMLLRQEYVKLQKKLAETEKRCALLAAQANKESSSESFISRLLAIVADLYEQEQYSDLKIKVGDRHISAHKFVLAARSDSWSLANLSSTKELDLSDANPEVTMTMLRWIYTDELEFREDDVFLTELMKLANRFQLQLLRERCEKGVMSLVNVRNCIRFYQTAEELNASTLMNYCAEIIASHWDDLRKEDFSSMSAQLLYKMIKSKTEYPLHKAIKVEREDVVFLYLIEMDSQLPGKLNEADHNGDLALDLALSRRLESIATTLVSHKADVDMVDKSGWSLLHKGIQRGDLFAATFLIKNGAFVNAATLGAQETPLHLVALYSSKKHSADVMSEMAQIAEALLQAGANPNMQDSKGRTPLHVSIMAGNEYVFSQLLQCKQLDLELKDHEGSTALWLAVQHITVSSDQSVNPFEDVPVVNGTSFDENSFAARLIQRGSHTDAPDTATGNCLLQRAAGAGNEAAALFLATNGAHVNHRNKWGETPLHTACRHGLANLTAELLQQGANPNLQTEEALPLPKEAASLTSLADSVHLQTPLHMAIAYNHPDVVSVILEQKANALHATNNLQIIPDFSLKDSRDQTVLGLALWTGMHTIAAQLLGSGAAINDTMSDGQTLLHMAIQRQDSKSALFLLEHQADINVRTQDGETALQLAIRNQLPLVVDAICTRGADMSVPDEKGNPPLWLALANNLEDIASTLVRHGCDATCWGPGPGGCLQTLLHRAIDENNEPTACFLIRSGCDVNSPRQPGANGEGEEEARDGQTPLHLAASWGLEETVQCLLEFGANVNAQDAEGRTPIHVAISSQHGVIIQLLVSHPDIHLNVRDRQGLTPFACAMTFKNNKSAEAILKRESGAAEQVDNKGRNFLHVAVQNSDIESVLFLISVHANVNSRVQDASKLTPLHLAVQAGSEIIVRNLLLAGAKVNELTKHRQTALHLAAQQDLPTICSVLLENGVDFAAVDENGNNALHLAVMHGRLNNIRVLLTECTVDAEAFNLRGQSPLHILGQYGKENAAAIFDLFLECMPGYPLDKPDADGSTVLLLAYMKGNANLCRAIVRSGARLGVNNNQGVNIFNYQVATKQLLFRLLDMLSKEPPWCDGSYCYECTARFGVTTRKHHCRHCGRLLCHKCSTKEIPIIKFDLNKPVRVCNICFDVLTLGGVS
Consider B1, for which the results for the binding result in the assay with GST-Rab5 [1] and with GST-Rab5 [2] were “no binding (condition: Rab5 loaded with GDP)” and “binds”, respectively.

B2: in vitro-translated 35S-methionine-labelled Rabankyrin-5 full-length protein, Q9P2R3 1-1169 (protein)
chain: MAEEEVAKLEKHLMLLRQEYVKLQKKLAETEKRCALLAAQANKESSSESFISRLLAIVADLYEQEQYSDLKIKVGDRHISAHKFVLAARSDSWSLANLSSTKELDLSDANPEVTMTMLRWIYTDELEFREDDVFLTELMKLANRFQLQLLRERCEKGVMSLVNVRNCIRFYQTAEELNASTLMNYCAEIIASHWDDLRKEDFSSMSAQLLYKMIKSKTEYPLHKAIKVEREDVVFLYLIEMDSQLPGKLNEADHNGDLALDLALSRRLESIATTLVSHKADVDMVDKSGWSLLHKGIQRGDLFAATFLIKNGAFVNAATLGAQETPLHLVALYSSKKHSADVMSEMAQIAEALLQAGANPNMQDSKGRTPLHVSIMAGNEYVFSQLLQCKQLDLELKDHEGSTALWLAVQHITVSSDQSVNPFEDVPVVNGTSFDENSFAARLIQRGSHTDAPDTATGNCLLQRAAGAGNEAAALFLATNGAHVNHRNKWGETPLHTACRHGLANLTAELLQQGANPNLQTEEALPLPKEAASLTSLADSVHLQTPLHMAIAYNHPDVVSVILEQKANALHATNNLQIIPDFSLKDSRDQTVLGLALWTGMHTIAAQLLGSGAAINDTMSDGQTLLHMAIQRQDSKSALFLLEHQADINVRTQDGETALQLAIRNQLPLVVDAICTRGADMSVPDEKGNPPLWLALANNLEDIASTLVRHGCDATCWGPGPGGCLQTLLHRAIDENNEPTACFLIRSGCDVNSPRQPGANGEGEEEARDGQTPLHLAASWGLEETVQCLLEFGANVNAQDAEGRTPIHVAISSQHGVIIQLLVSHPDIHLNVRDRQGLTPFACAMTFKNNKSAEAILKRESGAAEQVDNKGRNFLHVAVQNSDIESVLFLISVHANVNSRVQDASKLTPLHLAVQAGSEIIVRNLLLAGAKVNELTKHRQTALHLAAQQDLPTICSVLLENGVDFAAVDENGNNALHLAVMHGRLNNIRVLLTECTVDAEAFNLRGQSPLHILGQYGKENAAAIFDLFLECMPGYPLDKPDADGSTVLLLAYMKGNANLCRAIVRSGARLGVNNNQGVNIFNYQVATKQLLFRLLDMLSKEPPWCDGSYCYECTARFGVTTRKHHCRHCGRLLCHKCSTKEIPIIKFDLNKPVRVCNICFDVLTLGGVS
modifications: here or on the partner: 35S-methionine labelled
B2: the binding result is recorded as “no binding” with GST-Rab7, P51149 [3] and “no binding” in the assay with GST-Rab7, P51149 [4].

B3: in vitro-translated 35S-methionine-labelled Rabankyrin-5 full-length protein (protein, UniProt Q9P2R3 1-1169)
chain: MAEEEVAKLEKHLMLLRQEYVKLQKKLAETEKRCALLAAQANKESSSESFISRLLAIVADLYEQEQYSDLKIKVGDRHISAHKFVLAARSDSWSLANLSSTKELDLSDANPEVTMTMLRWIYTDELEFREDDVFLTELMKLANRFQLQLLRERCEKGVMSLVNVRNCIRFYQTAEELNASTLMNYCAEIIASHWDDLRKEDFSSMSAQLLYKMIKSKTEYPLHKAIKVEREDVVFLYLIEMDSQLPGKLNEADHNGDLALDLALSRRLESIATTLVSHKADVDMVDKSGWSLLHKGIQRGDLFAATFLIKNGAFVNAATLGAQETPLHLVALYSSKKHSADVMSEMAQIAEALLQAGANPNMQDSKGRTPLHVSIMAGNEYVFSQLLQCKQLDLELKDHEGSTALWLAVQHITVSSDQSVNPFEDVPVVNGTSFDENSFAARLIQRGSHTDAPDTATGNCLLQRAAGAGNEAAALFLATNGAHVNHRNKWGETPLHTACRHGLANLTAELLQQGANPNLQTEEALPLPKEAASLTSLADSVHLQTPLHMAIAYNHPDVVSVILEQKANALHATNNLQIIPDFSLKDSRDQTVLGLALWTGMHTIAAQLLGSGAAINDTMSDGQTLLHMAIQRQDSKSALFLLEHQADINVRTQDGETALQLAIRNQLPLVVDAICTRGADMSVPDEKGNPPLWLALANNLEDIASTLVRHGCDATCWGPGPGGCLQTLLHRAIDENNEPTACFLIRSGCDVNSPRQPGANGEGEEEARDGQTPLHLAASWGLEETVQCLLEFGANVNAQDAEGRTPIHVAISSQHGVIIQLLVSHPDIHLNVRDRQGLTPFACAMTFKNNKSAEAILKRESGAAEQVDNKGRNFLHVAVQNSDIESVLFLISVHANVNSRVQDASKLTPLHLAVQAGSEIIVRNLLLAGAKVNELTKHRQTALHLAAQQDLPTICSVLLENGVDFAAVDENGNNALHLAVMHGRLNNIRVLLTECTVDAEAFNLRGQSPLHILGQYGKENAAAIFDLFLECMPGYPLDKPDADGSTVLLLAYMKGNANLCRAIVRSGARLGVNNNQGVNIFNYQVATKQLLFRLLDMLSKEPPWCDGSYCYECTARFGVTTRKHHCRHCGRLLCHKCSTKEIPIIKFDLNKPVRVCNICFDVLTLGGVS
modifications: 35S-methionine labelled
As to B3, the binding entry in the assay with GST-Rab11 [5] was “no binding”; with GST-Rab5 [6], “no binding (condition: Rab5 preloaded with GDP)”; in the assay with GST-Rab11 [7], “no binding”; in the assay with GST-Rab5 [8], “binds”.
